{"source": "PubChem BioAssay AID651820", "about": "(National Center for Advancing Translational Sciences (NCATS), 2012)", "note": "The whole screen tested about 340,000 compounds, of which about 12,000 (3.5%) were called active. Inconclusive means that the source gave no clear call. Such entries were picked first, then a sample of the others. Calls come from the whole dose curve; as a rule, active = well fitted inhibition curve with a large enough effect; inconclusive = small, poorly fitted or top-dose-only effect, or another doubt; inactive = no such curve, though single readings can be large or run the other way. Potencies of inconclusive entries are left out as doubtful fits.", "data": [{"assay": "qHTS Assay for Inhibitors of Hepatitis C Virus (HCV); note: potency is the fitted concentration of half-maximal effect; tags give direction and shape of the fitted curve; for activity change, negative = inhibition: % is set by controls: 0 for no effect and ±100 for the full control effect", "conditions": "Huh7.5.1 HCVcc-Cre (HCVcc is cell-culture hepatitis C virus) infection, luciferase reporter, 44 h; activity change, negative = inhibition: at 41.8 µM (top of the series) unless noted", "method_in_brief": "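Antiviral activity was scored by luciferase reporter output from cells infected with HCVcc-Cre (~0.5 moi) in presence of compound, 44 h infection period, cells seeded 1,000/well 4 h prior.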", "values": [{"compound": "COCCN1CCCC(CNCc2cn(C)nc2-c2ccc(Oc3ccccc3)cc2)C1", "note": "(configuration not stated)", "Potency": "active: 14.1 µM"}, {"compound": "COc1ccc(/C=N\\NC(=O)c2ccc(-c3ccccc3)cc2)c(OC)c1OC", "Potency": "inconclusive [inhibitor, partial curve]"}, {"compound": "CC(Nc1ccc(N2CCOCC2)cc1)C(=O)N1c2ccccc2CC1C", "note": "(configuration not stated)", "activity change, negative = inhibition": "inactive: 5.66%"}, {"compound": "CC(C)c1ccc(/C=C/C(=O)Nc2ccc(CN3CCOCC3)cc2)cc1", "Potency": "active: 2.24 µM"}, {"compound": "COCc1cc(CN2CCCC(C(=O)Nc3ccc(-c4ccco4)cc3)C2)ccc1OC", "note": "(configuration not stated)", "Potency": "inconclusive [inhibitor, single point]"}, {"compound": "Cc1noc(C)c1C(=O)OCC(=O)Nc1ccccc1C(=O)NC(C)c1ccccc1", "note": "(configuration not stated)", "Potency": "inconclusive [inhibitor, single point]"}, {"compound": "N/C(=N\\OC(=O)COc1ccc(Br)cc1Cl)c1ccccn1", "activity change, negative = inhibition": "inactive: -5.63%"}, {"compound": "Cc1ccccc1NS(=O)(=O)c1ccc(C(=O)N2CCN(S(=O)(=O)c3ccccc3)CC2)cc1", "Potency": "inconclusive [inhibitor, single point]"}, {"compound": "O=S(=O)(c1ccc(Cl)cc1)N1CCN(Cc2ccc(O)c3ncccc23)CC1", "Potency": "inconclusive [inhibitor, full curve]"}, {"compound": "Cc1ccc(C)c(NC(=O)CN(C)C(=O)Cc2ccccc2)c1", "activity change, negative = inhibition": "inactive: 35.1%"}, {"compound": "Cc1onc(-c2ccccc2Cl)c1C(=O)Nc1ccc(-n2nncc2-c2ccco2)cc1", "Potency": "inconclusive [inhibitor, single point]"}, {"compound": "CCN(CC)CCCNC(=O)CSc1nc(-c2ccc(F)cc2)cc(C(F)(F)F)n1", "Potency": "inconclusive [inhibitor, partial curve]"}, {"compound": "O=[N+]([O-])c1ccc(N2CCCCC2)nc1N1CCCCC1", "activity change, negative = inhibition": "inactive: -29.3%"}, {"compound": "Cc1cc(C)cc(NC(=O)CSc2nc(=O)n(CCCN3CCOCC3)c3c2CCCC3)c1", "Potency": "inconclusive [inhibitor, single point]"}, {"compound": "Cc1noc(NC(=O)c2cccc(C(F)(F)F)c2)c1Cl", "activity change, negative = inhibition": "inactive: -2.02%"}, {"compound": "COc1ccc(-c2cn3c(C)c(C(=O)NC(C)(C)C)sc3n2)cc1", "Potency": "inconclusive [inhibitor, single point]"}, {"compound": "CCOc1ccccc1-n1c(SCC(=O)NC2CCCC2)nnc1-c1ccoc1C", "Potency": "inconclusive [inhibitor, single point]"}, {"compound": "O=C(O)CC/C(=N\\Nc1ccc(S(=O)(=O)N2CCCC2)cc1[N+](=O)[O-])c1cccs1", "Potency": "inconclusive [inhibitor, partial curve, poor fit]"}, {"compound": "Cc1scc2c1N(C(=O)CN1CCN(C)CC1)c1ccccc1NC2=O", "Potency": "inconclusive [inhibitor, single point]"}, {"compound": "COc1ccc(-c2nnc(SCC(=O)c3[nH]c(C)c(C(C)=O)c3C)o2)cc1", "Potency": "inconclusive [inhibitor, full curve, poor fit]"}, {"compound": "CCOc1ccc(N(C)S(=O)(=O)c2ccc3[nH]cc(C(=O)NCCOC)c(=O)c3c2)cc1", "activity change, negative = inhibition": "inactive: -27.1%"}, {"compound": "CC(c1ccccc1)N(C)C(=O)CN1CCN(S(=O)(=O)c2ccc3c(c2)OCCCO3)CC1", "note": "(configuration not stated)", "Potency": "inconclusive [inhibitor, single point]"}, {"compound": "COc1cccc(N2CCN(c3ncnc4c3cnn4-c3ccc(C)cc3C)CC2)c1", "Potency": "active: 3.55 µM"}, {"compound": "CN(Cc1ccccc1)C(=O)c1cccc(NC(=O)Cc2ccc(NC(=O)C3CCN(S(=O)(=O)c4cccc([N+](=O)[O-])c4)CC3)cc2)c1", "Potency": "active: 8.91 µM"}, {"compound": "Cc1csc(NC(=O)c2cc(-c3ccccc3)nc3ccccc23)n1", "Potency": "inconclusive [inhibitor, single point]"}, {"compound": "O=C(NCCOc1nc(N2CCCCC2)nc(N2CCOCC2)n1)Nc1ccccc1", "Potency": "active: 8.91 µM"}, {"compound": "Cc1cc(C)c(S(=O)(=O)NCC(c2ccc3c(c2)OCO3)N2CCOCC2)c(C)c1", "note": "(configuration not stated)", "activity change, negative = inhibition": "inactive: 13.2%"}, {"compound": "COc1cccc(CNC(=S)Nc2cc(OC)ccc2OC)c1", "Potency": "inconclusive [inhibitor, single point]"}, {"compound": "c1ccc(-n2nnc3ccccc32)cc1", "Potency": "inconclusive [inhibitor, partial curve]"}, {"compound": "Cc1ccc(NC(=O)c2cc(S(=O)(=O)N(C)C)ccc2N2CCCC2)cc1S(=O)(=O)N(C)C", "Potency": "inconclusive [inhibitor, single point]"}, {"compound": "COc1ccc(CCNC(=O)c2ccc(CN3CCC(Cc4ccccc4)CC3)cc2)cc1OC", "Potency": "inconclusive [inhibitor, partial curve, poor fit]"}, {"compound": "Cc1cccc(NS(=O)(=O)c2cccc(C(=O)N3CCCC(C(F)(F)F)C3)c2)c1", "note": "(configuration not stated)", "activity change, negative = inhibition": "inactive: 13.8%"}, {"compound": "Cc1sc(NC(=O)c2ccco2)c(C(c2ccccc2)N2CCC(C)CC2)c1C", "note": "(configuration not stated)", "Potency": "inconclusive [inhibitor, single point]"}, {"compound": "O=C(Nc1cccc(-c2nnn(CC(=O)N3CCc4ccccc4C3)n2)c1)C1CCC1", "Potency": "inconclusive [inhibitor, single point]"}, {"compound": "CCc1nn(CC(=O)NCCC2=CCCCC2)c(=O)c2cc3cc(F)ccc3n12", "Potency": "inconclusive [inhibitor, partial curve]"}, {"compound": "COc1ccc(N2CCN(CCCNC(=O)CN3CCN(Cc4ccccc4C)C3=O)CC2)cc1", "Potency": "active: 11.2 µM"}, {"compound": "CC(OC(=O)c1ccc(Cl)c(S(N)(=O)=O)c1)C(=O)NCC1CCCCC1", "note": "(configuration not stated)", "Potency": "inconclusive [inhibitor, single point]"}, {"compound": "N#CCC(=O)Nc1ccc(C(=O)Nc2ccc3c(c2)OCO3)cc1", "Potency": "inconclusive [inhibitor, partial curve, poor fit]"}, {"compound": "O=C(NCc1ccco1)/C(=C/c1cccc(C(F)(F)F)c1)c1nc2ccccc2[nH]1", "Potency": "active: 15.8 µM"}, {"compound": "C=CC[C@H](CC(=O)N(CCO)Cc1ccccc1)C(=O)NCCOC(=O)[C@@H](CC=C)CC(=O)OC(C)(C)C", "Potency": "inconclusive [inhibitor, partial curve]"}, {"compound": "COc1cc(N/N=C/c2ccccc2O)ncn1", "Potency": "inconclusive [inhibitor, single point]"}, {"compound": "COc1cc(/C=C2\\SC(=S)N(CCC(=O)Nc3ccc(O)cc3)C2=O)cc(OC)c1OC", "Potency": "inconclusive [inhibitor, full curve]"}]}]}
